In all, about 150,000 compounds went through this assay and about 540 (0.36%) showed an effect of 50% or more. The list shows a part of the results.
System: Plasmodium falciparum
Test: Primary screen in NF54 nanoGlo assay, in single point, at 2uM, 72h; a lower Z score goes with more inhibition
Type: functional, Erythrocyte
Conditions: timepoint 72 hour

| Structure (SMILES) | % Inhibition | Z score |
| --- | --- | --- |
| CCOCC(=O)Nc1ccc2c(c1)C(=O)N(C)c1cc(C)ccc1O2 | 3% | -0.35 |
| Cc1cc(C)nc(CN(C)C(=O)c2cn(C)c(C)cc2=O)c1 | -12% | 1.2 |
| Cc1cccc2c(N3CCS(=O)(=O)CC3)ncnc12 | -7% | 0.59 |
| Cc1ccc(-c2ccc(F)cn2)c2cccnc12 | -2% | 0.49 |
| Cc1nc(N2CCNC(=O)[C@@H]2CC2CCCCC2)ccc1C#N | -9% | 1.43 |
| CN(Cc1ccccc1Cl)C[C@H]1CCCCO1 | 1% | -0.15 |
| CCn1cc(C2OCCC2CNCc2csc(COC)n2)cn1 (stereo not given) | -9% | 1.31 |
| COCCn1cncc1CNc1nc(C)nc2ccsc12 | -8% | 0.81 |
| CC(=O)Nc1ccc(C)c(CC(C)(C)C)c1C | 4% | -0.47 |
| CC(=O)N1CCCn2nc(-c3ccc(F)cc3)cc2C1 | -17% | 1.52 |
| O=C1OCCC1NC(c1ccccc1)C1CCC1 (stereo not given) | -8% | 1.29 |
| Cc1ccc(CN2c3ccccc3OC[C@@H]2CC(=O)NCc2ccc(Cl)cc2)cc1 | -2% | 0.31 |
| O=C(O)c1cccc(NC(=O)[C@H]2CCCC[C@@H]2C(F)(F)F)c1 | 8% | -1 |
| Cn1ncnc1CCNC(=O)NC(C1CCCC1)C1CCCC1 | 35% | -4.68 |
| Cc1nn(C)c(C)c1CN1CCC(CC2CC2)(c2noc(C3CCOCC3)n2)CC1 | -6% | 0.85 |
| O=C(c1cccc(F)c1F)N1C[C@@H]2CN(CC3CCC3)C[C@]2(C(=O)O)C1 | -2% | 0.15 |
| CCOc1cc(-c2c(C)c(-c3cnn(C)c3)nc(N)c2C#N)ccc1O | -10% | 1.24 |
| Cc1cnn([C@@H](C)CNC(=O)c2cnccc2C)c1 | -3% | 0.57 |
| Cc1cccc(C[C@H](C)Nc2ncnc3[nH]cnc23)n1 | 1% | -0.23 |
| CN(CCCc1n[nH]c(N)c1C#N)c1ccc2nnc(C3CC3)n2n1 | -4% | 0.59 |
| CCOC(=O)[C@@]1(CCOc2ccccc2)CCCN(C2CCN(C)CC2)C1 | -11% | 1.69 |
| Cn1nccc1CNC(=O)NC1(Cc2ccccc2)CCCC1 | 0% | -0.04 |
| C[C@]1(CO)CCCN1C(=O)NCCc1csc(-c2ccccc2)n1 | -9% | 0.89 |
| COCCc1noc(Cc2cccc(F)c2F)n1 | 0% | 0 |
| N#Cc1cccc(CN(CC(F)F)C2CCS(=O)(=O)CC2)c1 | -7% | 1.21 |
